No constants are given. Whether binding was seen depends on the method and setting. In cells and extracts the contact can be indirect. Some entries that bind do so weakly or less than the wild type.

Protein sequences, listed by entry. Tags and fused reporters are not part of them. Lines headed by an entry give the natural chain unless they say otherwise; changes in a name come on top. Chains listed by the source or under a name are the forms on record and can include a tag or linker. Residues count along the entry.
UniProt Q4VSI4: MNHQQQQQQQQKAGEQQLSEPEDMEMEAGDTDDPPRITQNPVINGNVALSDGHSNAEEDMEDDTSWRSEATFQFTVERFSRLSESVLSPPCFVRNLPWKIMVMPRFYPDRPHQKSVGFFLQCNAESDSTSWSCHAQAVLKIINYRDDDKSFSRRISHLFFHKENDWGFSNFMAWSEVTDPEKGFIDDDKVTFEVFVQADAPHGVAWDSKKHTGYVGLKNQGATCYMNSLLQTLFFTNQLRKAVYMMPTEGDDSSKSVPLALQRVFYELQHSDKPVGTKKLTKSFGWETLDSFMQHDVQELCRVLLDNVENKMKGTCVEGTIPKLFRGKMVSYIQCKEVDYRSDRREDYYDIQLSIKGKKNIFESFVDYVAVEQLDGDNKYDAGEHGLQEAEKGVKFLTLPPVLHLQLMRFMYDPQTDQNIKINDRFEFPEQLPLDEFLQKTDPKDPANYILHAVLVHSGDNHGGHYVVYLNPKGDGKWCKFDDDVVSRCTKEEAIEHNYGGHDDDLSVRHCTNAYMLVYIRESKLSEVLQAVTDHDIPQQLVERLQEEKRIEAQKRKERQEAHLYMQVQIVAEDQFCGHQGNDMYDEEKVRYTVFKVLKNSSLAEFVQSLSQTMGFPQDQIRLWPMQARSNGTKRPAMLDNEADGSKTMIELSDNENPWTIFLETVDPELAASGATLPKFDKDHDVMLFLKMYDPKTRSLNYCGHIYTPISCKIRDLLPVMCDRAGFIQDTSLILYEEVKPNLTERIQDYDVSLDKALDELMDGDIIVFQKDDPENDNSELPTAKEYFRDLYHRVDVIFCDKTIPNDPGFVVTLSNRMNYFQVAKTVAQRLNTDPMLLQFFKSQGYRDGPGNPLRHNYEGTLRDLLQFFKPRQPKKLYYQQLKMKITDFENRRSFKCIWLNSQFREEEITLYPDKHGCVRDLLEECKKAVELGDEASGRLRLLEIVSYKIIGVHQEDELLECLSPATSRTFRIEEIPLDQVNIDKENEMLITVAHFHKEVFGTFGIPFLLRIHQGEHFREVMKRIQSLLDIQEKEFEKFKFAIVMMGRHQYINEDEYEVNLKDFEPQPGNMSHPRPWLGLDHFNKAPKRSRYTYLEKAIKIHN
UniProt Q93009: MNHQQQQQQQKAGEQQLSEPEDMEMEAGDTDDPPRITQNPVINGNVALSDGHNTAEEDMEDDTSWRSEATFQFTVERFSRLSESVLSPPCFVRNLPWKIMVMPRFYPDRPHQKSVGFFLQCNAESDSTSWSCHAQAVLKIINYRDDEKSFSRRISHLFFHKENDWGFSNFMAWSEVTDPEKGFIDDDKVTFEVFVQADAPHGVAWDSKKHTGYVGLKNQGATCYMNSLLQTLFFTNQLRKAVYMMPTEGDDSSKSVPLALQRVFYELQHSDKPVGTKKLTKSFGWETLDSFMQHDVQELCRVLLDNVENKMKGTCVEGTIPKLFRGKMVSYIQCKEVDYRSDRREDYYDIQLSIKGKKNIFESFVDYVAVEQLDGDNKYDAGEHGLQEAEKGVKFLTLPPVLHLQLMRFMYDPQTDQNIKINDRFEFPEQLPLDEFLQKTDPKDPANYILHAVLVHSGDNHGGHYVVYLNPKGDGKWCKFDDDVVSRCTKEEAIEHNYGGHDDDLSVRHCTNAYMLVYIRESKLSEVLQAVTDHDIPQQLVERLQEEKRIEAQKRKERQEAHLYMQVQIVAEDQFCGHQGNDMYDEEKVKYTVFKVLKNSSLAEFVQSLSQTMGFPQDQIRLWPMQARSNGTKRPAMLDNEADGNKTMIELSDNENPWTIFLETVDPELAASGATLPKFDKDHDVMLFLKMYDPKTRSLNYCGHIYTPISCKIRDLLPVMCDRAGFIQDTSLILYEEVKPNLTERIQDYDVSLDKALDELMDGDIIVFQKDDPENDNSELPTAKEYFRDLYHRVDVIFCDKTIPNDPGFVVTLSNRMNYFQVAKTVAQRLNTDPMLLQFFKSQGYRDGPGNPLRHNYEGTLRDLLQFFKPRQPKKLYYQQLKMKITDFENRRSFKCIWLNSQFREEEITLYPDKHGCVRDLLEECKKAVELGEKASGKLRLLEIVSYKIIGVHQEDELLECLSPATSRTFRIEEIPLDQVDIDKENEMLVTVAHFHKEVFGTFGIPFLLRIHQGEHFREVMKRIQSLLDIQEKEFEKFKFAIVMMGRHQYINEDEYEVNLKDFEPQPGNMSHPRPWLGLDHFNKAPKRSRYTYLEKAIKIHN
GST fused USP7 N-terminal segment (TD, residues 1–215): residues 1-215 of Q93009
GST fused USP7 central catalytic domain (CD): residues 208-560 of Q93009
GST fused USP7 C-terminal structural domain C1: residues 600-870 of Q93009
GST fused USP7 C-terminal structural domain C2: residues 885-1061 of Q93009

Experiment [1] has as its target GST fusion protein E1B 1–162 (human adenovirus type 5 (HAdV5)) (UniProt P03243). As to the kind of experiment: pull-down; GST fusions of E1B-55K and its variants immobilized to Glutathione-sepharose beads, incubated with extracts of H1299 cells for 2 h at 4°C, washed six times; USP7 detected by immunoblot; only the target purified. A general note: Immunoblotting shows a protein as a band on a membrane.

Experiment [2] concerns the target GST fused full-length HAdV5 E1B-55K (human adenovirus type 5 (HAdV5)) (UniProt P03243). The experiment is described as above.
Experiment [3] has as its target USP7 endogenous in Brk1 rat cells (rat (endogenous in Brk1)) (UniProt Q4VSI4). The experiment can be described thus: co-IP; USP7 precipitated with the USP7 antibody 6E6 or 3D8 (control IgG2a) from lysates of transfected H1299, infected A549 and H1299 (MOI 20, 24 h p.i.) or transfected Brk1 cells; E1B-55K detected by immunoblot; in one panel H1299 cells untreated or treated with DMSO or HBX (3 µM), co-precipitate reduced after HBX.

The target of experiment [4] is Ubiquitin-specific protease 7 (USP7), cellular, endogenous in human cells (human (endogenous in H1299 and A549)) (UniProt Q93009). The description is as above.
For experiment [5], the target named is GST fused USP7 C-terminal structural domain C1 (human) (UniProt Q93009). The experiment can be described thus: pull-down; GST fused USP7 segments on Glutathione Sepharose incubated with HAdV5 wt (H5pg4100)-infected H1299 cell extracts prepared at 48 h p.i., 2 h at 4°C; E1B-55K detected by immunoblot; only the target purified.
The target of experiment [6] is GST fused USP7 N-terminal segment (TD, residues 1–215) (human) (UniProt Q93009). The description is as above.
Experiment [7] deals with GST fused USP7 central catalytic domain (CD) (human) (UniProt Q93009). Described as above.
Experiment [8] has as its target GST fused USP7 C-terminal structural domain C2 (human) (UniProt Q93009). The description is as above.

Take “Ubiquitin-specific protease 7 (USP7), cellular, endogenous in human cells (from UniProt Q93009-1 1-1102) (enzyme)”: the binding result in experiment [1] and in experiment [2] was “binds” in each case.
For “E1B-55K expressed in E1B-plasmid transfected Brk1 rat cells (from UniProt P03243 1-496)”, in experiment [3], the binding entry is given as “binds”.
For the substance “wt E1B-55K expressed from plasmid pE1B-55K in H1299 cells (from UniProt P03243 1-496)”, the binding result in experiment [4] is “binds”.
Turning to “HAdV5 E1B-55K protein from wt virus (H5pg4100) infected cells (from UniProt P03243 1-496)”, the binding entry in experiment [5] was “no binding”; in experiment [6], “binds”; in experiment [7], “no binding”; in experiment [8], “no binding”; in experiment [4], “binds”.
